Data taken from PubChem BioAssay AID651820 (National Center for Advancing Translational Sciences (NCATS), 2012).
Hit rate of the full screen: of about 340,000 compounds, about 12,000 (3.5%) were called active. This list was built around the results that the source calls inconclusive (neither active nor inactive); the mix of calls is not that of the screen. The call rests on the fitted dose curve; in most records, active means well fitted inhibition curve with a large enough effect; inconclusive means small, poorly fitted or top-dose-only effect, or another doubt; inactive means no such curve, though single readings can be large or run the other way. Potencies of inconclusive entries are left out as doubtful fits.

Assay: qHTS Assay for Inhibitors of Hepatitis C Virus (HCV)
Details: Huh7.5.1 HCVcc-Cre (HCVcc is cell-culture hepatitis C virus) infection, luciferase reporter, 44 h; series mostly up to 41.8 µM
In short: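 HCVcc-Cre virus at an moi near 0.5 was added right after compound to cells cultured 4 h from seeding (1,000 cells/well). Luciferase activity was determined 44 h later, 15 min after substrate addition at RT.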
Potency means the concentration at half of the fitted maximal effect; tags describe the fitted curve by direction and shape.

SMILES | Potency
CCN(CC(=O)Nc1ccc(NC(C)=O)cc1)C(=O)c1cccc(S(=O)(=O)N2c3ccccc3CC2C)c1 (stereo not given) | inactive
CCN(CC)S(=O)(=O)c1cccc(NC(=O)c2ccc(S(=O)(=O)N3CCCC3)cc2)c1 | inconclusive [inhibitor, full curve]
COc1ccc(N2CCC(CNC(=O)Nc3ccc(OC)cc3OC)C2)cc1 (stereo not given) | inconclusive [inhibitor, full curve]
C/C=C/c1cc(CN2CCN(c3ccccc3)CC2)c(O)c(OC)c1 | inactive
Cc1ccc(-c2cc(C(=O)N/N=C/c3ccccc3O)n[nH]2)o1 | inconclusive [inhibitor, single point]
Cn1c([N+](=O)[O-])cnc1COC(N)=O | inconclusive [inhibitor, single point]
CN(C)CCC1CCN(c2cc(C#N)c(C#N)cc2[N+](=O)[O-])CC1 | inconclusive [inhibitor, partial curve]
CS(=O)(=O)N(CC(=O)NN=C1CCCCCC1)c1ccc(Oc2ccccc2)cc1 | inconclusive [inhibitor, single point]
Cc1ccc(N=C(N)N=C(N)N)cc1 | inactive
CCCc1cc(C(=O)N2CCCC(Cc3cccc(Cl)c3)(C(=O)OCC)C2)n(C)n1 (stereo not given) | inconclusive [inhibitor, single point]
Cc1cnc(C)c(N2CCN(Cc3cn(C)nc3-c3cccc(Cl)c3)CC2)n1 | inconclusive [inhibitor, single point]
CCC(SC1=N/C(=C/c2ccccc2)C(=O)N1c1ccccc1)C(=O)Nc1cc(C)on1 (stereo not given) | inconclusive [inhibitor, partial curve]
CCC1CCCCN1CCCNC(=O)Cn1nc(-c2ccc(C)cc2)ccc1=O (stereo not given) | inconclusive [inhibitor, single point]
COc1ccc2c(c1)[nH]c1c(=O)n(/N=C/c3ccc(OC)c(CN4CCCC4)c3)cnc12 | inconclusive [inhibitor, partial curve]
Cc1nn(CC(=O)Nc2cc(S(=O)(=O)N(C)C)ccc2Cl)c(C)c1[N+](=O)[O-] | inconclusive [inhibitor, single point]
O=C(CCC(=O)N1CCOc2ccccc21)Nc1cc(F)ccc1F | inconclusive [inhibitor, partial curve]
CCC1CCc2c(sc(NC(=O)c3cccnc3)c2C(N)=O)C1 (stereo not given) | inconclusive [inhibitor, full curve, poor fit]
O=C(Nc1nc2c(s1)CCCC2)c1ccc(N2C(=O)CCC2=O)cc1 | inactive
O=C(/C=C/Nc1ccccc1C(=O)O)c1cccs1 | inactive
Cc1c(NS(=O)(=O)c2cc(C(=O)NCc3ccco3)cc(Cl)c2Cl)c(=O)n(-c2ccccc2)n1C | inconclusive [inhibitor, single point]
O=C(O)CN1C(=O)CC(c2ccccc2)CC1=O | inactive
c1ccc(CN2CCN(CCOCCOc3cccc4ccccc34)CC2)cc1 | inconclusive [inhibitor, single point]
CC(/C=C1\SC(=S)N(NC(=O)c2ccc(O)cc2)C1=O)=C\c1ccccc1 | inactive
COc1ccc2cc(CN(CC3CCCO3)S(=O)(=O)c3ccc(C(C)=O)cc3)c(=O)[nH]c2c1 (stereo not given) | inactive

SMILES | Potency
CC(C)C[C@H](NC(=O)c1nc[nH]c1C(=O)N1CCN(C(=O)OC(C)(C)C)CC1)C(=O)OCc1ccccc1 | inactive
Cc1cnc(NC(=O)C2COc3ccccc3O2)s1 (stereo not given) | inactive
O=C(NCCCCc1ccccc1)c1cccc(NC(=O)C2CCC2)c1 | inconclusive [inhibitor, full curve, poor fit]
Cc1noc(C)c1COC(=O)C1COc2ccccc2O1 (stereo not given) | inactive
CS(=O)(=O)c1ccc(C(=O)OCC(=O)N(CCc2ccccc2)Cc2ccccc2)cc1 | inactive
COc1ccc(Br)cc1CNC(=O)CCc1nc(-c2ccc(C)cc2)no1 | inconclusive [inhibitor, partial curve]
Cn1c(=O)c2c(nc(CN3CCN(Cc4ccccc4)CC3)n2Cc2cccc(Cl)c2)n(C)c1=O | inconclusive [inhibitor, single point]
Cc1cc(-c2ccccc2)nc(N2CCN(c3ccccn3)CC2)n1 | inconclusive [inhibitor, partial curve]
CN(c1ccc(OCC(=O)N2CCN(C/C=C/c3ccccc3)CC2)cc1)S(=O)(=O)c1cccs1 | active: 11.2 µM
Cc1cccc2nc(-c3ccccc3)nc(N[C@@H](CO)c3ccccc3)c12 | inconclusive [inhibitor, single point]
O=C(Nc1cc(F)ccc1F)C1CCN(S(=O)(=O)c2cccc3nonc23)CC1 | inactive
CCN(CC)c1ncnc2ccc(Br)cc12 | inconclusive [inhibitor, single point]
O=C(Nc1nnc(-c2ccncc2)o1)c1ccc(Br)s1 | inconclusive [inhibitor, partial curve, poor fit]
O=C(Nc1ccc(N2CCOCC2)cc1)c1ccc2c(c1)OCO2 | inactive
CCn1cc(Br)c(C(=O)Nc2sc3c(c2C(N)=O)CCCC3)n1 | inactive
COc1ccc(C2(C)NC(=O)N(CC(=O)Nc3ccc4c(c3)CCC4)C2=O)cc1OC (stereo not given) | inconclusive [inhibitor, single point]
Cc1sc2nc(CSc3cccc(C(F)(F)F)c3)[nH]c(=O)c2c1C | inactive
O=C(OCc1ccc(F)cc1)c1cc(S(=O)(=O)N2CCCCC2)ccc1N1CCOCC1 | inconclusive [inhibitor, partial curve]
COc1ccc(-c2oc3ncn4nc(Cc5ccccc5)nc4c3c2-c2ccc(OC)cc2)cc1 | inconclusive [inhibitor, single point]
O=C(Nc1cccnc1)C1=NN(C2CCS(=O)(=O)C2)C(=O)CC1 (stereo not given) | inactive
CC(CS(=O)(=O)c1ccc2c(c1)NC(=O)CS2)C(=O)NCc1ccccc1Cl (stereo not given) | inactive
N#CCSc1nc2ccccc2c2nc3ccccc3n12 | inconclusive [inhibitor, single point]
c1csc(-c2csc3ncnc(NCCCN4CCOCC4)c23)c1 | inconclusive [inhibitor, single point]
O=C(Nc1cccs1)Nc1ccccc1Br | inconclusive [inhibitor, single point]

SMILES | Potency
Cc1ccc(CNC(=O)CN2c3cccc4cccc(c34)S2(=O)=O)cc1 | inactive
CCN1CCN(S(=O)(=O)c2ccc(Cl)c(C(=O)Nc3ccc(C(=O)N(CC)CC)cc3)c2)CC1 | inconclusive [inhibitor, partial curve]
O=C(c1ccccc1)c1cc2c(cc1[N+](=O)[O-])OCCO2 | inactive
Cc1ccnc(-n2c(C)cc(/C=N/NC(=O)COc3cccc4cccnc34)c2C)c1 | inactive
COc1cc(/C=C(\C#N)c2nc3ccccc3[nH]2)cc(Br)c1OCc1ccccc1 | inconclusive [inhibitor, full curve]
CCOC(=O)Cc1csc(NC(=O)NC2(C(F)(F)F)Oc3ccccc3O2)n1 | inconclusive [inhibitor, single point]
CCc1ccc(-c2cc3c(=O)n(CC(=O)NCCCN4CCN(CC)CC4)nc(C)n3n2)cc1 | inconclusive [inhibitor, partial curve]
O=C(Nc1ccccc1)NC1(C(=O)NCc2ccc3c(c2)OCO3)CCCCC1 | inconclusive [inhibitor, single point]
CC(OC(=O)c1cc(Br)ccc1O)C(=O)Nc1ccc(S(=O)(=O)N2CCCC2)cc1 (stereo not given) | inconclusive [inhibitor, partial curve, poor fit]
CC(CC(C)C(=O)N1CCOCCN(C(=O)C(C)CC(C)C(=O)O)CCOCC1)C(=O)O (stereo not given) | inactive
CCN(CC)S(=O)(=O)c1ccc(N2CCCC2)c(NC(=O)Cc2ccc(OC)cc2)c1 | inconclusive [inhibitor, single point]
CCN(CC)CCCNc1oc(-c2cccc(Cl)c2)nc1C#N | inconclusive [inhibitor, partial curve]
Cc1ccc(NC(=O)C2COc3ccccc3O2)cc1S(=O)(=O)N1CCCCC1 (stereo not given) | active: 11.2 µM
Cc1ccc(Cn2nnc3c(=O)[nH]c(C4CCN(C(=O)Cc5cccs5)CC4)nc32)cc1 | inactive
O=C(OCCN1C(=O)c2cccc3c(N4CCOCC4)ccc(c23)C1=O)c1cccc(Cl)c1 | active: 11.2 µM
O=C(CN1CCN(c2ccccc2F)CC1)N1N=CCC1c1ccccc1 (stereo not given) | inconclusive [inhibitor, single point]
CCCC(=O)c1ccc(N2CCN(C(=O)c3ccccc3)CC2)c(F)c1 | inconclusive [inhibitor, single point]
COc1ccccc1NC(=O)Cn1c(=O)n(-c2ccccc2)c(=O)c2oc3ccccc3c21 | inconclusive [inhibitor, single point]
COc1ccc(-n2c(Cc3cccn3C)nnc2SCC(=O)Nc2ccc(C(C)=O)cc2)cc1 | inactive
CCN1C=C(Cc2cccs2)C2=C(C1)C(c1cccs1)C(C#N)=C(N)O2 (stereo not given) | inconclusive [inhibitor, partial curve]
COc1ccc(OC)c(/C=N/Nc2nc(C)cc(=O)[nH]2)c1 | inactive
C=CCSc1nccc(-c2nn(-c3ccc(C)cc3)ccc2=O)n1 | inconclusive [inhibitor, partial curve]
